Assay results taken from PubChem BioAssay AID686978 (National Center for Advancing Translational Sciences (NCATS), 2013).
Screen size: about 420,000 compounds; about 64,000 (15%) were called active. The shares of active, inactive and inconclusive entries below differ from those in the screen. The call rests on the fitted dose curve; in most records, active means well fitted inhibition curve with a large enough effect; inconclusive means small, poorly fitted or top-dose-only effect; inactive means flat fitted curve, though single readings scatter. Potencies of inconclusive entries are left out as doubtful fits.
Potency means the concentration at half of the fitted maximal effect; tags describe the fitted curve by direction and shape.

Assay: qHTS for Inhibitors of human tyrosyl-DNA phosphodiesterase 1 (TDP1): qHTS in cells in absence of CPT; further: nearly all actives have a fitted effect of over 55% in size
Settings: DT40 Tdp1-/- hTDP1 cells, no CPT, ATP luminescence, 48 h; series mostly up to 46.2 µM
Outline: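 Readout: luminescence from CellTiter-Glo after 30 min in the dark at RT. Cells: DT40 Tdp1-/- with stable hTDP1, 400/well. Exposure: compounds alone, ≥48 hr, 37 °C.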
With `COc1ccc(NC(=O)c2oc3ccccc3c2CSC)cn1` the Potency was inconclusive [inhibitor, single point]. In the case of `Cc1ccc(CSCCNC(=O)c2ccc(C)cc2)cc1`, the Potency is reported as inconclusive [inhibitor, single point]. For `Cc1cccc(Cn2nc(C)c(NC(=O)c3ccc(F)cc3)c2C)c1`, the Potency was inconclusive [inhibitor, partial curve]. In the case of `COc1ccc(C(=O)N(Cc2ccccc2)c2cccc(C)c2)cc1`, the Potency is reported as inconclusive [inhibitor, partial curve]. In the case of `COc1ccc(NC(=O)CN(C)CC(=O)NC(=O)NC2CCCCC2)cc1`, the Potency is reported as inconclusive [inhibitor, single point]. With `CCOC(=O)c1c(S(=O)(=O)NCC(=O)Nc2cccc(F)c2)c(C)n(C)c1C` the Potency was “inactive”. With `COCCNC(=O)C(OC(=O)c1ccco1)c1ccccc1F` (stereo not given) the Potency was “inactive”. In the case of `O=C(NC1CCCCCC1)C(Cc1ccccc1)n1cccc1` (stereo not given), the Potency is reported as inconclusive [inhibitor, single point]. With `COc1ccc(-n2nc([N+](=O)[O-])c(=NCCc3ccc(Cl)cc3)n2O)cc1` the Potency was inconclusive [inhibitor, single point]. For `CN(CC(=O)Nc1ccccc1C(F)(F)F)C(=O)CC1OC(=O)c2ccccc21` (stereo not given), the Potency was “inactive”. For `O=C1/C(=C/c2ccccc2)N=C(N2CCOCC2)N1c1cccc(Cl)c1`, the Potency was inconclusive [inhibitor, partial curve]. With `CCN1CCOC(CC(=O)Nc2cccc([N+](=O)[O-])c2)C1=O` (stereo not given) the Potency was inconclusive [inhibitor, single point]. For `CN(CCC1CCCCO1)C(=O)c1cc(COc2ccc(F)cc2F)on1` (stereo not given), the Potency was inconclusive [inhibitor, single point]. In the case of `Cn1cnc(C(=O)NCc2ccccc2)c1C(=O)NCc1ccccc1`, the Potency is reported as inconclusive [inhibitor, single point]. With `O=C(O)c1c(-c2ccccc2)oc2ccc(OCc3ccc(Cl)c(Cl)c3)cc12` the Potency was inconclusive [inhibitor, single point]. With `CC1CCC(Nc2ncnc3onc(-c4ccc(F)cc4)c23)CC1` (stereo not given) the Potency was inconclusive [inhibitor, single point]. In the case of `Cc1nc2c(OCCOc3ccccc3)cccn2c1N(C)C(=O)CCC1CCCC1`, the Potency is reported as inconclusive [inhibitor, single point]. For `COc1ccc(N2CCN(C(=O)c3cc(=O)c4cc(C)c(C)cc4o3)CC2)cc1`, the Potency was inconclusive [inhibitor, single point]. For `COc1ccc(NC(=O)c2cc(S(=O)(=O)N3CCc4ccccc43)cn2C)cc1OC`, the Potency was “inactive”. In the case of `C=CCC(=O)NC1CC(C)(C)Cc2c1cnn2-c1ccc(C)cc1` (stereo not given), the Potency is reported as “inactive”. In the case of `Cc1nn(Cc2ccccc2)c(C)c1NC(=O)CSc1nnc(-c2cc(Cl)ccc2O)n1C`, the Potency is reported as “inactive”. With `CCCCn1c(-c2ccc(OC)cc2)nc2c(=O)n(C)c(=O)[nH]c21` the Potency was inconclusive [inhibitor, single point]. With `COc1ccc(-c2cc(C#N)nc(NN)n2)cc1` the Potency was inconclusive [inhibitor, single point]. With `Nc1n[nH]c(C2CC2)c1N=Nc1ccc(Cl)c(Cl)c1` the Potency was inconclusive [inhibitor, single point]. With `Cn1c(=O)[nH]c(=O)c2c1nc(N1CCCCCC1)n2CCSc1nc2ccccc2o1` the Potency was “inactive”. In the case of `COc1cccc(CNC(=O)CCNS(=O)(=O)c2ccc(Br)s2)c1`, the Potency is reported as inconclusive [inhibitor, single point]. With `CSc1nsc(SCC(=O)N2CCCCC2)n1` the Potency was “inactive”. In the case of `COc1cccc(-c2ccc3c(c2)N(Cc2ccccc2OC)C(=O)C(C)S3)c1` (stereo not given), the Potency is reported as inconclusive [inhibitor, single point]. In the case of `CC(=O)c1c(N2CCN(C)CC2)nc(=S)n(-c2cc(C)ccc2C)c1C`, the Potency is reported as “inactive”. In the case of `COc1cccc(C2C3=C(CCCC3=O)Nc3[nH]n(-c4ccccc4)c(=O)c32)c1` (stereo not given), the Potency is reported as inconclusive [inhibitor, partial curve, poor fit]. For `CCCOc1ccc(N2C(=O)CC(NCc3cccnc3)C2=O)cc1` (stereo not given), the Potency was “inactive”. In the case of `Cc1oc(-c2ccccc2)cc1C(=O)Nc1ccc(N(C)C)cc1`, the Potency is reported as inconclusive [inhibitor, single point]. For `CN(CC(=O)Nc1ccc(OC(F)(F)F)cc1)C(=O)/C=C/c1ccco1`, the Potency was active: 23.1 µM. For `Cc1cccc(NC(=O)CCc2c(C)nn(-c3ccc(N4CCCCC4)nn3)c2C)c1`, the Potency was inconclusive [inhibitor, single point]. For `COc1cc(C(=O)N(Cc2ccco2)Cc2cc3ccccc3[nH]c2=O)cc(OC)c1OC`, the Potency was inconclusive [inhibitor, single point]. With `CCOc1cccc(C(=O)N(Cc2ccc(N(C)C)cc2)CC2CCCO2)c1` (stereo not given) the Potency was active: 16.4 µM. With `Cc1cccc(C)c1NC(=O)C(c1ccccc1F)n1c(=O)c(-c2ccccc2)nc2ccccc21` (stereo not given) the Potency was active: 20.6 µM. For `S=c1[nH]nc(COc2ccccc2)n1/N=C/c1ccccc1Cl`, the Potency was “inactive”. For `Cc1ccccc1CC1C(=O)Nc2ccc(Br)cc21` (stereo not given), the Potency was inconclusive [inhibitor, single point]. In the case of `O=C(CCNS(=O)(=O)c1ccccc1Cl)OCc1nnc(-c2ccccc2Cl)o1`, the Potency is reported as “inactive”. With `Cc1ccc2c(c1)c1c3n2CCN(CCC#N)C3CCC1` (stereo not given) the Potency was “inactive”. With `Cn1c(=O)n(C)c2cc(N3CCOCC3)c(NS(=O)(=O)c3ccc(C(C)(C)C)cc3)cc21` the Potency was active: 4.11 µM. In the case of `O=[N+]([O-])c1ccccc1/C=N/n1c(C2CCCCC2)n[nH]c1=S`, the Potency is reported as inconclusive [inhibitor, single point]. For `CC1CCN(S(=O)(=O)c2ccc3c(ccc(=O)n3CC(=O)Nc3ccc(C(C)C)cc3)c2)CC1`, the Potency was inconclusive [inhibitor, partial curve, poor fit]. For `CN(C)S(=O)(=O)c1ccc(Cl)c(NC(=O)COC(=O)/C=C/c2cnc3ccccc3n2)c1`, the Potency was “inactive”.
